# Test results taken from the supplement of paper PMC12217912.
# The list shows a part of the results. The full chains were built here from the parent and the listed change. Inactive controls read about 0.05.
# B1: TEV protease; numbered along this chain (parent)
# chain: MGESLFKGPRDYNPISSSICHLTNESDGHTTSLYGIGFGPFIITNKHLFRRNNGTLVVQSLHGVFKVKDTTTLQQHLVDGRDMIIIRMPKDFPPFPQKLKFREPQREERICLVTTNFQTKSMSSMVSDTSCTFPSGDGIFWKHWIQTKDGQCGSPLVSTRDGFIVGIHSASNFTNTNNYFTSVPKNFMELLTNQEAQQWVSGWRLNADSVLWGGHKVFMVKPEEPFQPVKEATQL
# Variants of: B1
# Test: raw area under fraction-flipped curve 0-4 h after induction (AUC4h, not background-subtracted), DNA-recorder readout of cleavage of the substrate (dimensionless); higher = more cleavage of the substrate by the protease variant
# Conditions: temperature: 34 °C; time window: 0-4 h after rhamnose induction
# Protocol: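 In vivo DNA recorder in E. coli TOP10(DE3) ΔrhaA at 34 °C. Each TEVp single-site mutant (parent TEVp 0) is paired with a single-site variant of the 7-mer TEVs (canonical ENLYFQ|S). The substrate sits between flexible linkers in a Bxb1-sfGFP-TEVs-SsrA fusion, so cleavage stabilises Bxb1 and speeds flipping of a recombination array, read by NGS. The value is the raw area under the fraction-flipped curve over 0-4 h after rhamnose induction (AUC4h), with ≥20 reads per time point. It is not background-subtracted; inactive controls average about 0.047.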
# 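Also: Bxb1 expression induced with 0.2% (w/v) L-rhamnose at OD600 near 0.5, cultures sampled hourly, flipped fraction per protease–substrate barcode pair counted by paired-end Illumina sequencing.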
Variant,area with substrate ENAYFQS,area with substrate ENCYFQS,area with substrate ENDYFQS,area with substrate ENEYFQS,area with substrate ENFYFQS,area with substrate ENGYFQS,area with substrate ENHYFQS,area with substrate ENIYFQS,area with substrate ENMYFQS,area with substrate ENPYFQS,area with substrate ENQYFQS,area with substrate ENRYFQS,area with substrate ENSYFQS,area with substrate ENTYFQS,area with substrate ENVYFQS,area with substrate ENKYFQS,area with substrate ENNYFQS,area with substrate ENYYFQS,area with substrate ENWYFQS
MQESLFKGPRDYNPISSSICHLTNESDGHTTSLYGIGFGPFIITNKHLFRRNNGTLVVQSLHGVFKVKDTTTLQQHLVDGRDMIIIRMPKDFPPFPQKLKFREPQREERICLVTTNFQTKSMSSMVSDTSCTFPSGDGIFWKHWIQTKDGQCGSPLVSTRDGFIVGIHSASNFTNTNNYFTSVPKNFMELLTNQEAQQWVSGWRLNADSVLWGGHKVFMVKPEEPFQPVKEATQL [G2Q],0.0551,0.0721,0.0532,0.0834,0.06,0.073,0.033,0.118,0.0905,0.0666,0.055,0.0712,0.0649,0.0567,0.0746,–,–,–,–
MGESLFKGPLDYNPISSSICHLTNESDGHTTSLYGIGFGPFIITNKHLFRRNNGTLVVQSLHGVFKVKDTTTLQQHLVDGRDMIIIRMPKDFPPFPQKLKFREPQREERICLVTTNFQTKSMSSMVSDTSCTFPSGDGIFWKHWIQTKDGQCGSPLVSTRDGFIVGIHSASNFTNTNNYFTSVPKNFMELLTNQEAQQWVSGWRLNADSVLWGGHKVFMVKPEEPFQPVKEATQL [R10L],0.0689,–,0.0625,0.0486,0.053,–,0.0578,0.122,–,0.0734,0.0545,0.0515,0.0636,0.0428,0.0688,0.0646,0.0617,0.0568,–
MGESLFKGARDYNPISSSICHLTNESDGHTTSLYGIGFGPFIITNKHLFRRNNGTLVVQSLHGVFKVKDTTTLQQHLVDGRDMIIIRMPKDFPPFPQKLKFREPQREERICLVTTNFQTKSMSSMVSDTSCTFPSGDGIFWKHWIQTKDGQCGSPLVSTRDGFIVGIHSASNFTNTNNYFTSVPKNFMELLTNQEAQQWVSGWRLNADSVLWGGHKVFMVKPEEPFQPVKEATQL [P9A],0.0573,0.0217,0.0478,0.0665,–,0.0493,0.0518,–,0.0864,–,0.0665,0.0486,–,0.0637,0.0744,0.0649,0.0609,0.0568,–
MGGSLFKGPRDYNPISSSICHLTNESDGHTTSLYGIGFGPFIITNKHLFRRNNGTLVVQSLHGVFKVKDTTTLQQHLVDGRDMIIIRMPKDFPPFPQKLKFREPQREERICLVTTNFQTKSMSSMVSDTSCTFPSGDGIFWKHWIQTKDGQCGSPLVSTRDGFIVGIHSASNFTNTNNYFTSVPKNFMELLTNQEAQQWVSGWRLNADSVLWGGHKVFMVKPEEPFQPVKEATQL [E3G],0.0629,0.0642,0.055,0.071,0.059,0.069,0.0636,–,–,0.0463,0.0595,0.0672,0.0616,0.0673,0.0561,0.0721,–,0.0568,0.0449
MGESQFKGPRDYNPISSSICHLTNESDGHTTSLYGIGFGPFIITNKHLFRRNNGTLVVQSLHGVFKVKDTTTLQQHLVDGRDMIIIRMPKDFPPFPQKLKFREPQREERICLVTTNFQTKSMSSMVSDTSCTFPSGDGIFWKHWIQTKDGQCGSPLVSTRDGFIVGIHSASNFTNTNNYFTSVPKNFMELLTNQEAQQWVSGWRLNADSVLWGGHKVFMVKPEEPFQPVKEATQL [L5Q],0.0628,0.0651,0.0619,0.0645,0.0564,–,0.0605,0.17,0.0925,–,0.0577,0.0401,0.0622,0.0541,0.0826,0.0585,0.0557,0.0462,–
MGEPLFKGPRDYNPISSSICHLTNESDGHTTSLYGIGFGPFIITNKHLFRRNNGTLVVQSLHGVFKVKDTTTLQQHLVDGRDMIIIRMPKDFPPFPQKLKFREPQREERICLVTTNFQTKSMSSMVSDTSCTFPSGDGIFWKHWIQTKDGQCGSPLVSTRDGFIVGIHSASNFTNTNNYFTSVPKNFMELLTNQEAQQWVSGWRLNADSVLWGGHKVFMVKPEEPFQPVKEATQL [S4P],0.061,0.0705,0.0633,0.0749,0.0547,–,0.0696,–,–,0.0576,0.0573,–,0.0644,0.0501,–,0.0657,0.0769,0.069,0.0657
MGEVLFKGPRDYNPISSSICHLTNESDGHTTSLYGIGFGPFIITNKHLFRRNNGTLVVQSLHGVFKVKDTTTLQQHLVDGRDMIIIRMPKDFPPFPQKLKFREPQREERICLVTTNFQTKSMSSMVSDTSCTFPSGDGIFWKHWIQTKDGQCGSPLVSTRDGFIVGIHSASNFTNTNNYFTSVPKNFMELLTNQEAQQWVSGWRLNADSVLWGGHKVFMVKPEEPFQPVKEATQL [S4V],0.0548,0.0757,0.0782,0.0689,0.0691,0.0492,0.0677,–,0.0918,–,0.056,–,0.0606,–,–,–,–,–,–
MGEKLFKGPRDYNPISSSICHLTNESDGHTTSLYGIGFGPFIITNKHLFRRNNGTLVVQSLHGVFKVKDTTTLQQHLVDGRDMIIIRMPKDFPPFPQKLKFREPQREERICLVTTNFQTKSMSSMVSDTSCTFPSGDGIFWKHWIQTKDGQCGSPLVSTRDGFIVGIHSASNFTNTNNYFTSVPKNFMELLTNQEAQQWVSGWRLNADSVLWGGHKVFMVKPEEPFQPVKEATQL [S4K],0.0535,–,–,0.0521,–,–,–,–,–,0.0616,0.0592,–,0.103,0.0444,0.0924,0.0574,0.0504,–,0.0131
MGEELFKGPRDYNPISSSICHLTNESDGHTTSLYGIGFGPFIITNKHLFRRNNGTLVVQSLHGVFKVKDTTTLQQHLVDGRDMIIIRMPKDFPPFPQKLKFREPQREERICLVTTNFQTKSMSSMVSDTSCTFPSGDGIFWKHWIQTKDGQCGSPLVSTRDGFIVGIHSASNFTNTNNYFTSVPKNFMELLTNQEAQQWVSGWRLNADSVLWGGHKVFMVKPEEPFQPVKEATQL [S4E],0.0721,0.065,0.0618,0.0541,0.0596,0.0826,0.0546,–,–,0.0584,0.0474,0.0575,0.043,0.0632,0.1,0.065,0.0453,0.0474,–
